Data on one substance can be found in article PMC6325244.

No constants are given. Whether binding was seen depends on the method and setting. In cells and extracts the contact can be indirect. Some binding calls cover weakened binding; strength is not graded here. Tags and fused reporters may be left off the sequences shown.

The experiment deals with T1, HisFtsW (E. coli) (UniProt P0ABG4).
T1 sequence: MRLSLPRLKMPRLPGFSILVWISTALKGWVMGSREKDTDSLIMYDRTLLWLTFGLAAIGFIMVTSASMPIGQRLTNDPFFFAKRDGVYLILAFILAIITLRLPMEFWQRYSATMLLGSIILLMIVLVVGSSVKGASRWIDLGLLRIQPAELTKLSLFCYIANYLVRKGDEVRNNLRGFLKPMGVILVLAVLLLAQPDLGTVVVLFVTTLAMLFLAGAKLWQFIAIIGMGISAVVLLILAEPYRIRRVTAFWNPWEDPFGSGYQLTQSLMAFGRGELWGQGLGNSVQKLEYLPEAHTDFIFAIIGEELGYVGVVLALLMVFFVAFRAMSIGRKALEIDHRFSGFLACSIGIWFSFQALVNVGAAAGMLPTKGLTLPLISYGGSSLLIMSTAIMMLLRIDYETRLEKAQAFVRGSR
As to the kind of experiment: pull-down; coexpression from compatible Duet vectors in E. coli, complexes extracted from membranes with detergent, affinity copurification on a HisTrap/Ni column with one His-tagged protein as bait; eluate labeled with fluorescent ampicillin when PBPs were present, SDS-PAGE, fluorescence imaging, Coomassie staining, immunoblot. In general terms: In western blotting, separated proteins are transferred to a membrane and probed.

On to “StrepFtsBLQ complex (Strep-FtsB, FtsL, FtsQ) (from UniProt P0A6S5 1-103; P0AEN4 1-121; P06136 1-276)”, for which the binding result is given as “binds”.
